Among all 73,000 compounds or so, about 1,800 (2.5%) were called active. The shares of active, inactive and inconclusive entries below differ from those in the screen. Calls follow the shape of the dose curve; as a rule, active = well fitted activation curve with a large enough effect; inconclusive = small, poorly fitted or top-dose-only effect; inactive = no such curve, though single readings can be large or run the other way. No potency is given beside an inconclusive call; the fits are too rough.
Experiment: qHTS Assay for Agonists of the Thyroid Stimulating Hormone Receptor: Activators of Intracellular cAMP Concentrations in Parental HEK 293; also: nearly all actives have a fitted effect of over 55% in size; as to activation: % of control where 0% means no effect
Details: parental HEK293 CNG cAMP sensor, membrane potential fluorescence; activation: at 57.1 µM (top of the series) unless noted
Outline: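 Counterscreen for endogenous-receptor signalling: CNG-channel HEK 293 cells report cAMP rise by membrane depolarization. After 60 min dye equilibration with 100 uM RO 20-1724, compounds incubated 30 min before bottom-read fluorescence at 590 nm.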
With `CCOc1cccc(-c2nnc3n2N=C(c2cc(OC)ccc2OC)CS3)c1` the Potency was inconclusive [activator, single point]. In the case of `Cc1noc(C)c1CSc1nc2[nH]ncc2c(=O)n1-c1ccccc1`, the “activation” value is reported as inactive: 14.4%. In the case of `COC(=O)c1ccccc1NC(=O)C1CCN(C(=O)c2cc(OC)c(OC)c(OC)c2)CC1`, the Potency is reported as inconclusive [activator, single point]. In the case of `N[C@H](CCC(=O)N[C@H](CSN=O)C(=O)NCC(=O)O)C(=O)O`, the Potency is reported as “inactive”. With `CCCCN(C)S(=O)(=O)c1cc(Br)cc2c1N(C(=O)C1CC1)CC2` the Potency was inconclusive [activator, partial curve]. For `CC(C)CN(C(=O)c1ccc(=O)n(C)n1)c1nc2ccccc2s1`, the “activation” value was inactive: 22.7%. For `COc1ccc(-c2nc3cnc(N4CCOCC4)nc3n(C3CC3)c2=O)cc1`, the Potency was inconclusive [activator, partial curve]. With `Cc1cc2c(=O)n(Cc3ccco3)c(SCC(=O)N3CCCc4ccccc43)nc2s1` the Potency was active: 31.6 µM. With `CCc1nc(N(CC)CC)c2oc3ccccc3c2n1` the Potency was active: 15.8 µM. With `COc1ccc(CCNc2oc(COc3ccccc3Cl)nc2C#N)cc1OC` the Potency was inconclusive [activator, single point]. In the case of `COC(=O)[C@@]1(Cc2ccc(F)cc2)[C@H]2c3cc(C(=O)N(C)C)n(CCc4ccccn4)c3C[C@H]2CN1C(=O)c1ccccc1`, the Potency is reported as inconclusive [activator, single point]. In the case of `O=C(Nc1cc(C(F)(F)F)ccc1F)C1CCC1`, the Potency is reported as inconclusive [activator, single point]. With `CCN1CCCC1CNC(=O)c1nn(-c2ccc(C)cc2)c(=O)c2c1c1ccccc1n2C` (stereo not given) the “activation” value was inactive: -37.8%. In the case of `Cc1ccccc1-n1nc(-c2ccc(N)cc2)cc1N`, the “activation” value is reported as inactive: -11.5%. In the case of `O=C(CSc1nc2c(c(=O)[nH]1)CCCC2)Nc1ccc(Cl)cc1F`, the “activation” value is reported as inactive: 10.3%. In the case of `O=C(c1ccccc1)c1ccc(N2CCOCC2)c(NC(=O)c2ccco2)c1`, the Potency is reported as inconclusive [activator, partial curve]. With `Cc1[nH]c2ccccc2c1CCO` the Potency was inconclusive [activator, partial curve]. With `C=C[C@@]1(C)CC(=O)[C@@]2(O)[C@@]3(C)[C@@H](O)CCC(C)(C)[C@@H]3[C@H](OC(=O)CCN(C)C)[C@H](OC(C)=O)[C@@]2(C)O1` the Potency was active: 0.126 µM. With `OCCNCC(O)Cn1ccc2ccccc21` (stereo not given) the Potency was inconclusive [activator, single point]. For `COc1cc(NC(=O)c2cc3sccc3n2C)cc(OC)c1`, the Potency was inconclusive [activator, partial curve].

From PubChem BioAssay AID938 (National Center for Advancing Translational Sciences (NCATS), 2007)
Potency is read from the fitted curve at half-maximal effect; tags tell the direction and shape of the fitted curve.
